Assay results: the supplement of paper PMC10126150
Values marked as one replicate rest on one cluster of the flow cell; about a third of the high ones do not repeat.

tested on: ATP; experiment: switch fluorescence ratio, 500 uM ATP over buffer (Cy3 cluster intensity, sum of 5 cycles each) (fold (ratio)); higher = stronger signal-on switching upon ATP binding; sequences stand for … in TCGTCGGCAGCGTCAGATGTGTATAAGAGACAGTTTTTTTTTTTTTTTTTTTTTTTTT…TC; settings: aptamer strand: ATP DNA aptamer (quencher-CACCTGGGGGAGTATTGCGGAGGAAGG + anchor), 100 nM annealed; ATP concentration: 500 uM; one replicate
Summary of the method: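 Values give the fluorescence ratio for each switch-domain sequence, averaged from per-cluster ratios of summed target-cycle to summed buffer-cycle Cy3 intensity. The Cy3-labelled switching-strand clusters sat on a modified Illumina MiSeq flow-cell, were annealed to 100 nM quencher-labelled ATP aptamer, and were imaged in selection buffer, then after 15 min with 500 uM ATP at 22 °C. Five cycles ran with NaOH stripping and re-annealing between them, and clusters outside 100-1000 RFU were excluded.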
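Note: ATP exposure 15 min at 22 °C before imaging.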

With GCAGTCGCAT as the sequence, how does the switch fluorescence ratio read?
The switch fluorescence ratio was 0.959.

GCAGTGAGTG was tested. Which switch fluorescence ratio did it give?
Its switch fluorescence ratio is 0.967.

For GCAGTGCCCC, which switch fluorescence ratio is on record?
Its switch fluorescence ratio is 1.23.

How did the switch fluorescence ratio turn out when GCAGTTAGAA was run?
The switch fluorescence ratio was 1.01.

With GCAGTTCTAT as the sequence, how does the switch fluorescence ratio read?
Its switch fluorescence ratio is 0.988.

Which switch fluorescence ratio does the source give for GCAGTTGAAG here?
The switch fluorescence ratio was 0.991.

With GCATAAAATA as the sequence, how does the switch fluorescence ratio read?
The switch fluorescence ratio was 1.06.

Which switch fluorescence ratio does the source give for GCATAACTTC here?
The switch fluorescence ratio was 1.16.

With GCATAAGGA as the sequence, how does the switch fluorescence ratio read?
Its switch fluorescence ratio is 0.974.

Which switch fluorescence ratio does the source give for GCATATAGGC here?
The switch fluorescence ratio was 0.976.

With GCATATGCCA as the sequence, how does the switch fluorescence ratio read?
Its switch fluorescence ratio is 1.

GCATATTCAG was tested. Which switch fluorescence ratio did it give?
The switch fluorescence ratio was 0.967.

GCATCAGAGG was tested. Which switch fluorescence ratio did it give?
The switch fluorescence ratio was 1.01.

GCATCAGCCC was tested. Which switch fluorescence ratio did it give?
The switch fluorescence ratio was 1.01.

Which switch fluorescence ratio does the source give for GCATCATCTG here?
The switch fluorescence ratio was 0.972.

With GCATCATGAA as the sequence, how does the switch fluorescence ratio read?
The switch fluorescence ratio was 1.

For GCATCGGGGC, which switch fluorescence ratio is on record?
The switch fluorescence ratio was 0.974.

For GCATGCATGA, which switch fluorescence ratio is on record?
Its switch fluorescence ratio is 0.998.

Which switch fluorescence ratio does the source give for GCATGCGGGG here?
Its switch fluorescence ratio is 0.992.

With GCATGGAATA as the sequence, how does the switch fluorescence ratio read?
The switch fluorescence ratio was 0.968.

How did the switch fluorescence ratio turn out when GCATGGGCTC was run?
Its switch fluorescence ratio is 1.05.

GCATGTAAGC was tested. Which switch fluorescence ratio did it give?
The switch fluorescence ratio was 0.995.

Which switch fluorescence ratio does the source give for GCATGTTGCT here?
The switch fluorescence ratio was 0.966.

With GCATTACGAC as the sequence, how does the switch fluorescence ratio read?
The switch fluorescence ratio was 3.47.

Which switch fluorescence ratio does the source give for GCATTATTGT here?
Its switch fluorescence ratio is 1.02.

For GCATTCAGCC, which switch fluorescence ratio is on record?
Its switch fluorescence ratio is 1.01.

GCATTGCCAC was tested. Which switch fluorescence ratio did it give?
The switch fluorescence ratio was 0.98.

GCATTTACGG was tested. Which switch fluorescence ratio did it give?
Its switch fluorescence ratio is 1.1.

How did the switch fluorescence ratio turn out when GCATTTATGT was run?
The switch fluorescence ratio was 0.995.

For GCATTTGTAT, which switch fluorescence ratio is on record?
The switch fluorescence ratio was 1.04.

GCCAAAGCGA was tested. Which switch fluorescence ratio did it give?
The switch fluorescence ratio was 1.2.

How did the switch fluorescence ratio turn out when GCCAACCTGT was run?
Its switch fluorescence ratio is 0.982.

Which switch fluorescence ratio does the source give for GCCAAGTTCT here?
Its switch fluorescence ratio is 0.95.

GCCAATTGGG was tested. Which switch fluorescence ratio did it give?
The switch fluorescence ratio was 0.978.

With GCCACGCAAC as the sequence, how does the switch fluorescence ratio read?
Its switch fluorescence ratio is 1.18.

For GCCACGGACG, which switch fluorescence ratio is on record?
The switch fluorescence ratio was 1.25.

GCCACGGTGC was tested. Which switch fluorescence ratio did it give?
The switch fluorescence ratio was 1.8.

For GCCACGGTGT, which switch fluorescence ratio is on record?
Its switch fluorescence ratio is 1.66.

Which switch fluorescence ratio does the source give for GCCACTTAGC here?
Its switch fluorescence ratio is 0.988.

For GCCAGCGCCA, which switch fluorescence ratio is on record?
Its switch fluorescence ratio is 1.07.

GCCAGGATCT was tested. Which switch fluorescence ratio did it give?
Its switch fluorescence ratio is 0.989.

GCCAGTTG was tested. Which switch fluorescence ratio did it give?
Its switch fluorescence ratio is 1.04.

With GCCAGTTGAG as the sequence, how does the switch fluorescence ratio read?
The switch fluorescence ratio was 0.987.

Which switch fluorescence ratio does the source give for GCCATAAGGA here?
Its switch fluorescence ratio is 1.01.

GCCATACCGC was tested. Which switch fluorescence ratio did it give?
Its switch fluorescence ratio is 1.11.

With GCCATAGGGT as the sequence, how does the switch fluorescence ratio read?
The switch fluorescence ratio was 1.03.

How did the switch fluorescence ratio turn out when GCCATGCTTC was run?
The switch fluorescence ratio was 0.995.

For GCCATGGATA, which switch fluorescence ratio is on record?
The switch fluorescence ratio was 0.98.

How did the switch fluorescence ratio turn out when GCCATGTGGT was run?
Its switch fluorescence ratio is 0.994.

For GCCATGTTTG, which switch fluorescence ratio is on record?
The switch fluorescence ratio was 0.954.

Which switch fluorescence ratio does the source give for GCCATTAGTG here?
Its switch fluorescence ratio is 0.993.

With GCCCACCGTT as the sequence, how does the switch fluorescence ratio read?
Its switch fluorescence ratio is 1.04.

GCCCATTGAT was tested. Which switch fluorescence ratio did it give?
Its switch fluorescence ratio is 1.01.

With GCCCCAAACT as the sequence, how does the switch fluorescence ratio read?
The switch fluorescence ratio was 0.976.

How did the switch fluorescence ratio turn out when GCCCCACGTG was run?
Its switch fluorescence ratio is 3.05.

GCCCCACTCT was tested. Which switch fluorescence ratio did it give?
The switch fluorescence ratio was 0.978.

Which switch fluorescence ratio does the source give for GCCCCCAACG here?
The switch fluorescence ratio was 1.22.

For GCCCCCAAGG, which switch fluorescence ratio is on record?
The switch fluorescence ratio was 1.

GCCCCCGAAG was tested. Which switch fluorescence ratio did it give?
The switch fluorescence ratio was 1.13.

For GCCCCCTTAG, which switch fluorescence ratio is on record?
Its switch fluorescence ratio is 1.05.

GCCCCGACCG was tested. Which switch fluorescence ratio did it give?
The switch fluorescence ratio was 1.2.

With GCCCCTAGAA as the sequence, how does the switch fluorescence ratio read?
Its switch fluorescence ratio is 1.04.

Which switch fluorescence ratio does the source give for GCCCCTGCCG here?
Its switch fluorescence ratio is 0.984.

How did the switch fluorescence ratio turn out when GCCCCTGTCA was run?
The switch fluorescence ratio was 0.966.

GCCCCTTTGG was tested. Which switch fluorescence ratio did it give?
The switch fluorescence ratio was 1.18.

How did the switch fluorescence ratio turn out when GCCCGATGTA was run?
Its switch fluorescence ratio is 0.994.

GCCCGGAAAA was tested. Which switch fluorescence ratio did it give?
The switch fluorescence ratio was 1.01.

With GCCCGGAGAG as the sequence, how does the switch fluorescence ratio read?
Its switch fluorescence ratio is 1.12.

GCCCGGTAAG was tested. Which switch fluorescence ratio did it give?
Its switch fluorescence ratio is 1.02.

How did the switch fluorescence ratio turn out when GCCCGGTAGA was run?
Its switch fluorescence ratio is 0.991.

Which switch fluorescence ratio does the source give for GCCCTAGGCG here?
Its switch fluorescence ratio is 1.04.

For GCCCTGAGGC, which switch fluorescence ratio is on record?
The switch fluorescence ratio was 1.09.

Which switch fluorescence ratio does the source give for GCCCTGCATC here?
The switch fluorescence ratio was 1.04.

GCCCTGCCGG was tested. Which switch fluorescence ratio did it give?
Its switch fluorescence ratio is 0.997.

Which switch fluorescence ratio does the source give for GCCCTGTCCA here?
Its switch fluorescence ratio is 1.03.

With GCCCTTCCGC as the sequence, how does the switch fluorescence ratio read?
Its switch fluorescence ratio is 1.38.

How did the switch fluorescence ratio turn out when GCCCTTCGTC was run?
Its switch fluorescence ratio is 1.17.

With GCCCTTGGAT as the sequence, how does the switch fluorescence ratio read?
Its switch fluorescence ratio is 1.02.

How did the switch fluorescence ratio turn out when GCCCTTTAGC was run?
Its switch fluorescence ratio is 0.998.

GCCCTTTATA was tested. Which switch fluorescence ratio did it give?
The switch fluorescence ratio was 1.03.

Which switch fluorescence ratio does the source give for GCCGAAAAA here?
Its switch fluorescence ratio is 1.01.

GCCGAAGATG was tested. Which switch fluorescence ratio did it give?
The switch fluorescence ratio was 1.03.

How did the switch fluorescence ratio turn out when GCCGAAGTGG was run?
Its switch fluorescence ratio is 1.

Which switch fluorescence ratio does the source give for GCCGAGAACA here?
The switch fluorescence ratio was 0.993.

Which switch fluorescence ratio does the source give for GCCGAGACCG here?
Its switch fluorescence ratio is 1.13.

Which switch fluorescence ratio does the source give for GCCGAGGCGA here?
Its switch fluorescence ratio is 1.06.

How did the switch fluorescence ratio turn out when GCCGAGGCTT was run?
The switch fluorescence ratio was 1.04.

For GCCGATGTAC, which switch fluorescence ratio is on record?
Its switch fluorescence ratio is 1.53.

How did the switch fluorescence ratio turn out when GCCGCAGTGT was run?
The switch fluorescence ratio was 1.57.

For GCCGCATAGA, which switch fluorescence ratio is on record?
Its switch fluorescence ratio is 2.08.

With GCCGCATTTC as the sequence, how does the switch fluorescence ratio read?
Its switch fluorescence ratio is 2.33.

GCCGCCAGAT was tested. Which switch fluorescence ratio did it give?
The switch fluorescence ratio was 1.08.

GCCGCCGAGG was tested. Which switch fluorescence ratio did it give?
Its switch fluorescence ratio is 0.978.

Which switch fluorescence ratio does the source give for GCCGCGAGCT here?
The switch fluorescence ratio was 1.04.

Which switch fluorescence ratio does the source give for GCCGCGAGGA here?
The switch fluorescence ratio was 1.16.

How did the switch fluorescence ratio turn out when GCCGCGATTG was run?
The switch fluorescence ratio was 1.13.

GCCGGAAATA was tested. Which switch fluorescence ratio did it give?
Its switch fluorescence ratio is 1.09.

How did the switch fluorescence ratio turn out when GCCGGAGGAT was run?
The switch fluorescence ratio was 0.993.

Which switch fluorescence ratio does the source give for GCCGGCGAAT here?
Its switch fluorescence ratio is 0.972.

GCCGGCTAGT was tested. Which switch fluorescence ratio did it give?
The switch fluorescence ratio was 1.02.
